Experimental data as given in article PMC4336329 (PLoS ONE, 2015).
Among all 310,000 compounds or so, about 14,000 (4.5%) showed an effect of 50% or more. Effects have a minus sign here. Some of the results follow.
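Also: peak tail current of the secondary pulse compared with the same well before compound.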

What follows are compounds tested against human ether-à-go-go-related gene (hERG) potassium channel (human, UniProt Q12809) (assay: primary screen, population patch clamp on CHO cells stably expressing hERG).
Sequence of human ether-à-go-go-related gene (hERG) potassium channel (Q12809 whole entry, looked up): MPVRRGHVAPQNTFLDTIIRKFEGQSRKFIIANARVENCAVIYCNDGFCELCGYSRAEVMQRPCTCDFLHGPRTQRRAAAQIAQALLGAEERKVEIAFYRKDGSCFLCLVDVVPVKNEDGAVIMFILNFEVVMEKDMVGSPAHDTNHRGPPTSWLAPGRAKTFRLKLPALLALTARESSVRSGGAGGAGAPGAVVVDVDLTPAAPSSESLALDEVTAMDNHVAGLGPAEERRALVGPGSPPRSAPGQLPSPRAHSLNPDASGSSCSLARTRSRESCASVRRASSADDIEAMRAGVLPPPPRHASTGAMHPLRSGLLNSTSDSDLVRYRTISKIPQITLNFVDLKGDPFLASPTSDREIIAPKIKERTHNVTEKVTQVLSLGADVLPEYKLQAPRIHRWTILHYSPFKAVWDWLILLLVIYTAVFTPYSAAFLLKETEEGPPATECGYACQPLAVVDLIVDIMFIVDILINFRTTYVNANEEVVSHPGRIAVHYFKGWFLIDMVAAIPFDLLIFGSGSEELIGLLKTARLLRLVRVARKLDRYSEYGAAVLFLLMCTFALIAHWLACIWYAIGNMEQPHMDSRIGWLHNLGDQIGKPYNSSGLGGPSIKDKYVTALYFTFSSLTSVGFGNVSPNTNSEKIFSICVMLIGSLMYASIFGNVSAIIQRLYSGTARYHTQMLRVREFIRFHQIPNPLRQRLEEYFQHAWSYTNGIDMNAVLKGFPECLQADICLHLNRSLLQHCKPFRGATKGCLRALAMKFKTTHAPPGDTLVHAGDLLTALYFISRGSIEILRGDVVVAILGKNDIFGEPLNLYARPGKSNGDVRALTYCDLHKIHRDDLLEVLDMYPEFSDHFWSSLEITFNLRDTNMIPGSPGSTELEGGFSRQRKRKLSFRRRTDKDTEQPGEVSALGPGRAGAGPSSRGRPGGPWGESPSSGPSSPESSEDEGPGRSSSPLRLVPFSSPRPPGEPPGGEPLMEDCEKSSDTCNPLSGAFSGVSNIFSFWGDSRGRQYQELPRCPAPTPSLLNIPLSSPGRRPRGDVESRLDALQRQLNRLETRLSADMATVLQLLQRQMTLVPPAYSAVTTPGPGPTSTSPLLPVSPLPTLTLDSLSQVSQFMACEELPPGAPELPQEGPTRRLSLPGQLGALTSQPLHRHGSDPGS
For `CC1CN(S(=O)(=O)c2ccc(C(=O)Nc3nnc(-c4ccco4)o3)cc2)CC(C)O1` (stereo not drawn), the “hERG current change (%, negative = inhibition) at 10uM” value was 13.2%. With `Cc1cc(Cl)cc(Cl)c1CNc1c([N+](=O)[O-])c(=O)oc2ccccc12` the “hERG current change (%, negative = inhibition) at 10uM” value was 8.42%. In the case of `Cc1ccc(NC(=O)c2ccc(S(=O)(=O)NCc3cccnc3)cc2)c(C)c1`, the “hERG current change (%, negative = inhibition) at 10uM” value is reported as 0.528%. `COc1ccccc1NC(=O)OCC#CCOC(=O)Nc1ccccc1OC` was tested, and the “hERG current change (%, negative = inhibition) at 10uM” value was 5.92%. For `Nc1cc(OC(=O)c2c(F)cccc2Cl)nn1S(=O)(=O)c1ccccc1`, the “hERG current change (%, negative = inhibition) at 10uM” value was -3.02%. For `CC1CC(OC(=O)c2ccccc2)CC(C)N1C.Cl` (stereo not drawn), the “hERG current change (%, negative = inhibition) at 10uM” value was -5.09%. With `CC(C)COc1ccc(C(=O)N/C(=C\c2cccc([N+](=O)[O-])c2)C(=O)O)cc1` the “hERG current change (%, negative = inhibition) at 10uM” value was 7.25%. `O=C1CCC(=O)N1c1ccccc1OS(=O)(=O)c1ccccc1` was tested, and the “hERG current change (%, negative = inhibition) at 10uM” value was 24.7%. For `CN(C)c1ccc(C=C(C#N)C#N)cc1`, the “hERG current change (%, negative = inhibition) at 10uM” value was -2.8%. `COCc1nnc(NC(=O)c2ccc(S(=O)(=O)N(C)c3ccccc3)cc2)o1` was tested, and the “hERG current change (%, negative = inhibition) at 10uM” value was 14.6%. For `O=C1c2sc3nc4n(c(=O)c3c2CCC1Br)CCCCC4` (stereo not drawn), the “hERG current change (%, negative = inhibition) at 10uM” value was -3.25%. In the case of `Cc1ccc(OCC(=O)Nc2sc3c(c2C#N)CCC3)cc1C`, the “hERG current change (%, negative = inhibition) at 10uM” value is reported as 3.62%. With `COC(=O)c1ccc(NC(=O)Cn2c([N+](=O)[O-])cnc2C)cc1` the “hERG current change (%, negative = inhibition) at 10uM” value was 1.23%. With `COc1cc(OC)nc(N/N=C(\c2ccccc2)c2ccncc2)n1` the “hERG current change (%, negative = inhibition) at 10uM” value was -18.1%. `CCc1ccc(N(C(=O)c2ccco2)C(C(=O)NC2CCCC2)c2ccncc2)cc1` (stereo not drawn) was tested, and the “hERG current change (%, negative = inhibition) at 10uM” value was -36.2%. For `O=C(NCC(=O)N(CCc1ccccc1)C(C(=O)NC1CCCCC1)c1ccncc1)c1ccco1` (stereo not drawn), the “hERG current change (%, negative = inhibition) at 10uM” value was -54.6%. `C/C(=N\NC(=O)C(=O)Nc1cc(C)ccc1C)c1ccncc1` was tested, and the “hERG current change (%, negative = inhibition) at 10uM” value was 5.66%. In the case of `CCOC(=O)Cn1nc(-c2ccc(F)cc2)oc1=O`, the “hERG current change (%, negative = inhibition) at 10uM” value is reported as -6.03%. For `CC(C)[C@H]1COCCS(=O)(=O)N1Cc1ccccc1F`, the “hERG current change (%, negative = inhibition) at 10uM” value was 11.3%. `CCOC(=O)c1c(C)nc2c(c1-c1ccc(OC)cc1)C(=O)CC(C)(C)C2` was tested, and the “hERG current change (%, negative = inhibition) at 10uM” value was -18.5%. In the case of `CSc1nc2ccccc2n1CC(=O)Nc1c(C)n(C)n(-c2ccccc2)c1=O`, the “hERG current change (%, negative = inhibition) at 10uM” value is reported as 9.75%. With `CCOc1ccc(N2C(=O)c3cccnc3C2=O)cc1` the “hERG current change (%, negative = inhibition) at 10uM” value was 13.1%. For `COC(=O)[C@]1(CC(C)C)N[C@H](c2ccc(SC3CCCCC3)c(OC)c2)[C@@H]2C(=O)N(C)C(=O)[C@@H]21.O=C(O)C(F)(F)F`, the “hERG current change (%, negative = inhibition) at 10uM” value was -27.5%. With `O=C(OCC#CCSc1nnc(-c2ccccc2)o1)c1ccco1` the “hERG current change (%, negative = inhibition) at 10uM” value was -29.2%. In the case of `c1ccc(C2CCC3(CC2)Oc2ccccc2C2CC(c4cccnc4)=NN23)cc1` (stereo not drawn), the “hERG current change (%, negative = inhibition) at 10uM” value is reported as 2.99%. With `Cc1ccc2nc(-c3ccc(N4C(=NC(=O)CCC(=O)O)SC5CS(=O)(=O)CC54)cc3)sc2c1` (stereo not drawn) the “hERG current change (%, negative = inhibition) at 10uM” value was -19.3%. For `COc1cc2c(cc1NC(=O)C(C)NCc1ccccc1)oc1ccccc12` (stereo not drawn), the “hERG current change (%, negative = inhibition) at 10uM” value was 2.62%. With `CN1CC(C(=O)c2ccccc2)C(C(=O)c2ccccc2)C1` (stereo not drawn) the “hERG current change (%, negative = inhibition) at 10uM” value was -21.4%. `COC(=O)c1cc(NC(=O)c2cccc([N+](=O)[O-])c2C)ccc1Cl` was tested, and the “hERG current change (%, negative = inhibition) at 10uM” value was -5.8%. `NC(=S)Nc1cccc(Cl)c1` was tested, and the “hERG current change (%, negative = inhibition) at 10uM” value was 19.1%. In the case of `Cc1nc(SCc2ccccc2)nc2c1CCC2`, the “hERG current change (%, negative = inhibition) at 10uM” value is reported as 4.66%. In the case of `O=C(NC1CCCCCCC1)c1ccccc1-c1ccccc1`, the “hERG current change (%, negative = inhibition) at 10uM” value is reported as -7.73%. For `C[C@@H]1CN=C2N(CCNC(=O)CCC3CCCCC3)[C@H](Cc3ccc(O)cc3)CN21`, the “hERG current change (%, negative = inhibition) at 10uM” value was -0.311%. `O=[n+]1cc(-c2ccc(Cl)cc2)n([O-])c2c1CCC2` was tested, and the “hERG current change (%, negative = inhibition) at 10uM” value was 21.4%. In the case of `O=C(N/N=C/c1cccnc1)c1cc(C2CC2)nc2ccccc12`, the “hERG current change (%, negative = inhibition) at 10uM” value is reported as 11.1%. `CS(=O)(=O)N1CCN(c2ccc(NC(=O)CSc3ccc(Cl)cc3)cc2)CC1` was tested, and the “hERG current change (%, negative = inhibition) at 10uM” value was -0.247%. For `NC(=O)c1ccsc1NC(=O)c1cc(=O)c2ccccc2o1`, the “hERG current change (%, negative = inhibition) at 10uM” value was -10.3%. In the case of `C/C=C/C=C/[C@H]1Cc2cc(O)cc(O)c2O1`, the “hERG current change (%, negative = inhibition) at 10uM” value is reported as 7.73%. With `CC(=O)N1N=C(c2cccc(NS(C)(=O)=O)c2)CC1c1cccs1` (stereo not drawn) the “hERG current change (%, negative = inhibition) at 10uM” value was -4.95%. `Cc1sc2ncn(CC(=O)NCCCC(=O)N3CCN(c4ccccc4F)CC3)c(=O)c2c1C` was tested, and the “hERG current change (%, negative = inhibition) at 10uM” value was -20.9%. For `Cc1nc(-c2cnn(-c3ccccc3)c2)c2cc(C)oc2n1`, the “hERG current change (%, negative = inhibition) at 10uM” value was 8.66%. With `CN1CCCc2cc(C=O)ccc21` the “hERG current change (%, negative = inhibition) at 10uM” value was 13.2%. With `O=C(CCNC(=O)C1CCN(S(=O)(=O)c2ccc(F)cc2)CC1)NCc1ccncc1` the “hERG current change (%, negative = inhibition) at 10uM” value was 5.04%. With `CCCOc1ccc(C2C(C(=O)c3ccc(C)o3)=C(O)C(=O)N2CCN2CCOCC2)cc1OC` (stereo not drawn) the “hERG current change (%, negative = inhibition) at 10uM” value was -2.09%. With `CCCC(=O)O[C@]1(C(=O)COC(C)=O)CC[C@H]2[C@@H]3C[C@H](F)C4=CC(=O)C=C[C@]4(C)[C@@]3(F)[C@@H](O)C[C@@]21C` the “hERG current change (%, negative = inhibition) at 10uM” value was 4.91%. `CCN(CC)S(=O)(=O)c1cccc(C(=O)NC(C(=O)Nc2nnc(C3CC3)s2)C(C)C)c1` (stereo not drawn) was tested, and the “hERG current change (%, negative = inhibition) at 10uM” value was -2.4%. `COc1ccc(C2=NN(Cc3ccccc3)C3C(=O)NC(=O)C23)cc1` (stereo not drawn) was tested, and the “hERG current change (%, negative = inhibition) at 10uM” value was -1.24%. `CCCCN(C(=O)C1CCN(C(=O)c2ccccc2C)CC1)c1c(N)n(CCCC)c(=O)[nH]c1=O` was tested, and the “hERG current change (%, negative = inhibition) at 10uM” value was 27%. `CC(C)[C@@H](N)C(=O)N/N=C/c1ccc2nccnc2c1.Cl` was tested, and the “hERG current change (%, negative = inhibition) at 10uM” value was 17.1%. In the case of `CC(=C1C(=O)c2ccccc2C1=O)N1CCN(CCN=Cc2c(O)n(C)c(=O)n(C)c2=O)CC1`, the “hERG current change (%, negative = inhibition) at 10uM” value is reported as -19%. `Oc1ccccc1/C=N/[n+]1ccccc1.[I-]` was tested, and the “hERG current change (%, negative = inhibition) at 10uM” value was 12.7%. In the case of `CCOC(=O)c1ccc(NC(=S)N2CCN(C(=O)C3CCCO3)CC2)cc1` (stereo not drawn), the “hERG current change (%, negative = inhibition) at 10uM” value is reported as -0.604%. In the case of `COCCNC(=O)C(OC(=O)c1nsc(Cl)c1Cl)C(C)C` (stereo not drawn), the “hERG current change (%, negative = inhibition) at 10uM” value is reported as 10.8%. With `COC(=O)c1sc2ncccc2c1OCc1ccccc1Cl` the “hERG current change (%, negative = inhibition) at 10uM” value was -20%.
